For orientation: AC50 means the concentration at which the activity in the assay is half-maximal.

The other results are listed elsewhere or left out. Shown are side measurements of this screen, not its main read-out; they come without a call. Most of these compounds were active or inconclusive in the main read-out, so they are no random draw. The note in brackets gives the kind of curve behind each potency; many fits are weak.
Tags tell the direction and shape of the fitted curve.

This assay is described as follows: Cell-based coincidence reporter assay to measure PMP22 gene transcription in S16 Pmp22-F2sN cells - Confirmatory screen (AID 1508646). To be noted: S16 Schwann cells Pmp22-F2sN, dual luciferase, 24 h; measured here: NLuc reporter channel. A digest of the protocol:
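Coincidence reporter read as sequential FLuc then NLuc luminescence (Nano-Glo Dual-Luciferase, 10 min each). Engineered S16 Pmp22-F2sN Schwann cells, 500-1,000 per well in DMEM/10% FBS, were exposed to compounds for 24 h, 37C.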
As for `CCC(Sc1nc2ccccc2c2nc(-c3ccccc3)nn12)C(=O)Nc1cccc(OC)c1` (stereo not drawn), the AC50 was 15.3 µM [falling, partial curve].

`COc1c(Cl)cc(Cl)cc1/C=C(\C#N)c1nc2ccccc2[nH]1`: the half-maximal activity concentration (AC50) was 34.3 µM [falling, partial curve].

Take `Cc1cc(NC(=O)C2CCCN(S(=O)(=O)c3cccc4nonc34)C2)ccc1Br` (stereo not drawn): the AC50 is 17.2 µM [falling, partial curve].

Turning to `Cc1ccc(CNC(=O)c2ccc(Cn3c(=O)c4ccccc4n(CC(=O)Nc4ccc(C)cc4C)c3=O)cc2)cc1`, the AC50 is 21.7 µM [falling, partial curve].

Take `CCOC(=O)c1c(NC(=O)c2nc(S(C)(=O)=O)ncc2Cl)sc(C(C)=O)c1C`: the concentration at half-maximal activity (AC50) was 3.43 µM [falling, full curve].

Regarding `Cc1ccc(NC(=O)CSc2ncc3c(n2)-c2ccccc2N(C)S3(=O)=O)c(Cl)c1`, the concentration at half-maximal activity (AC50) was 15.3 µM [falling, partial curve].

With `Cc1cccc(CCNc2ncnc3onc(-c4ccc(Cl)cc4)c23)c1`, the half-maximal activity concentration (AC50) is 43.2 µM [falling, single point].

For the molecule `Cc1cc(Nc2sc(C(=O)c3ccc(F)cc3)c(N)c2C(=O)Nc2ccc(F)cc2)ccc1Cl`, the AC50 was 6.11 µM [falling, full curve].

Regarding `Cc1ccc(NC(=O)CSc2nc3ccccc3nc2Cc2ccccc2)c(C)c1`, the concentration at half-maximal activity (AC50) was 24.3 µM [falling, single point].

Consider `COc1cccc(-c2cc(C(=O)Nc3cc(OC)c(OC)c(OC)c3)on2)c1`, for which the AC50 is 17.2 µM [falling, partial curve].

In the case of `O=C(CSc1c2c(nc3ccc(Cl)cc13)CCCC2)NCc1ccccc1Cl`, the AC50 is 24.3 µM [falling, partial curve, poor fit].

Turning to `COc1ccccc1Nc1c2c(nc3ccc(NC(=O)c4cccc(F)c4)cc13)CCCC2`, the AC50 was 12.2 µM [falling, full curve].

On to `CCc1ccc(NC(=O)c2ccc3c(c2)c(C)c(C)n3Cc2ccccc2)cc1`, for which the AC50 is 13.7 µM [falling, full curve, poor fit].

Regarding `O=S(=O)(c1ccc(-c2csc(=Nc3ccc(OC(F)(F)Cl)cc3)n2CCCO)cc1)N1CCCC1`, the AC50 was 19.3 µM [falling, partial curve].

As for `CCCOC(=O)c1c(C)oc2c1cc(NS(=O)(=O)c1ccc(OCC)cc1)c1ccccc12`, the AC50 is 10.9 µM [falling, partial curve].

Turning to `CCS(=O)(=O)c1ncc(Cl)c(C(=O)NCc2ccccc2)n1`, the AC50 was 7.69 µM [falling, full curve].

For the molecule `CCc1ccccc1NC(=O)Cn1nnc(C(=O)NCc2cccs2)c1N`, the concentration at half-maximal activity (AC50) was 9.68 µM [falling, partial curve].

As for `COc1ccc(Nc2ncc(C(=O)N3CCN(c4cccc(Cl)c4)CC3)c3ccccc23)cc1`, the AC50 is 15.3 µM [falling, partial curve].

Regarding `CCOc1ccc(C(=O)Nc2ccc3nc(SCc4ccccc4)sc3c2)cc1`, the AC50 is 17.2 µM [falling, partial curve].

On to `COc1cccc(CNC(=O)c2cc3c(=O)n(C)c4ccccc4c3n2C)c1`, for which the concentration at half-maximal activity (AC50) was 43.2 µM [falling, single point].

For the molecule `CCCC1=Nc2cc(C(=O)NC3CCCC3)ccc2Sc2ccc(C)cc21`, the concentration at half-maximal activity (AC50) was 3.43 µM [falling, full curve].

On to `Cc1ccc(C)c(Nc2nn3c(=O)c4ccc(C(=O)NCc5cccs5)cc4nc3s2)c1`, for which the AC50 was 21.7 µM [falling, partial curve].

In the case of `COc1ccccc1Nc1nn2c(=O)c3ccc(C(=O)NCCC4=CCCCC4)cc3nc2s1`, the concentration at half-maximal activity (AC50) was 5.44 µM [falling, full curve].

With `COc1ccc(C)cc1NS(=O)(=O)c1ccc(-c2cnc(C3CC3)o2)cc1`, the AC50 is 6.11 µM [falling, partial curve].

For the molecule `COc1ccc(OCC(=O)NCc2ccc3c(c2)CCN3C(=O)c2cccc(C)c2)cc1`, the concentration at half-maximal activity (AC50) is 10.9 µM [falling, full curve, poor fit].

Consider `CCCCS(=O)(=O)c1nc(-c2ccc(Br)cc2)cc(-c2ccccc2)c1C#N`, for which the concentration at half-maximal activity (AC50) is 10.9 µM [falling, full curve].

On to `CCOc1ccc(Nc2nc3c(S(=O)(=O)c4ccc(CC)cc4)nnn3c3ccc(Cl)cc23)cc1`, for which the half-maximal activity concentration (AC50) was 21.7 µM [falling, partial curve].

For `Cc1ccc(Cl)cc1N1CCN(C(=O)c2ccc(C)c(-n3c(C)nc4cccnc43)c2)CC1`, the half-maximal activity concentration (AC50) is 43.2 µM [falling, single point].

Source of the values: PubChem BioAssay (NCATS).
